Reference: the supplement of paper PMC12217912
The list shows a part of the results. The full chains were built here from the parent and the listed change. Inactive controls read about 0.05.

B1: TEV protease; numbered along this chain (parent)
chain: MGESLFKGPRDYNPISSSICHLTNESDGHTTSLYGIGFGPFIITNKHLFRRNNGTLVVQSLHGVFKVKDTTTLQQHLVDGRDMIIIRMPKDFPPFPQKLKFREPQREERICLVTTNFQTKSMSSMVSDTSCTFPSGDGIFWKHWIQTKDGQCGSPLVSTRDGFIVGIHSASNFTNTNNYFTSVPKNFMELLTNQEAQQWVSGWRLNADSVLWGGHKVFMVKPEEPFQPVKEATQL

Variants of: B1
Assay: raw area under fraction-flipped curve 0-4 h after induction (AUC4h, not background-subtracted), DNA-recorder readout of cleavage of the substrate (dimensionless); higher = more cleavage of the substrate by the protease variant
Settings: temperature: 34 °C; time window: 0-4 h after rhamnose induction
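Further: Bxb1 expression induced with 0.2% (w/v) L-rhamnose at OD600 near 0.5, cultures sampled hourly, flipped fraction per protease–substrate barcode pair counted by paired-end Illumina sequencing.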

**Q.** With MGESLFKGPRDYNPISSSICHLTNESDGHTTSLYGIGFGPFIITNKHLFRRNNGTLVVQSLHGVFKVKDTTTLQQHLVDGRDMIIIRMPKDFPPFPQKIKFREPQREERICLVTTNFQTKSMSSMVSDTSCTFPSGDGIFWKHWIQTKDGQCGSPLVSTRDGFIVGIHSASNFTNTNNYFTSVPKNFMELLTNQEAQQWVSGWRLNADSVLWGGHKVFMVKPEEPFQPVKEATQL [L99I] as the variant, how does the “area with substrate ECLYFQS” value read?
**A.** 0.0915

**Q.** And the “area with substrate EDLYFQS” value?
**A.** 0.0513

**Q.** And the “area with substrate EFLYFQS” value?
**A.** 0.133

**Q.** What about the “area with substrate EPLYFQS” value of the same variant?
**A.** 0.0835

**Q.** And the “area with substrate ESLYFQS” value?
**A.** 0.101

**Q.** Which “area with substrate ECLYFQS” value does the source give for MGESLFKGPRDYNPISSSICHLTNESDGHTTSLYGIGFGPFIITNKHLFRRNNGTLVVQSLHGVFKVKDTTTLQQHLVDGRDMIIIRMPKDFPPFPQKLKSREPQREERICLVTTNFQTKSMSSMVSDTSCTFPSGDGIFWKHWIQTKDGQCGSPLVSTRDGFIVGIHSASNFTNTNNYFTSVPKNFMELLTNQEAQQWVSGWRLNADSVLWGGHKVFMVKPEEPFQPVKEATQL [F101S] here?
**A.** 0.0446

**Q.** What about the “area with substrate EDLYFQS” value of the same variant?
**A.** 0.0576

**Q.** What about the “area with substrate EILYFQS” value of the same variant?
**A.** 0.0598

**Q.** And the “area with substrate EKLYFQS” value?
**A.** 0.0536

**Q.** What about the “area with substrate ELLYFQS” value of the same variant?
**A.** 0.0502

**Q.** What about the “area with substrate EMLYFQS” value of the same variant?
**A.** 0.042

**Q.** And the “area with substrate ESLYFQS” value?
**A.** 0.0662

**Q.** What about the “area with substrate ETLYFQS” value of the same variant?
**A.** 0.0416

**Q.** And the “area with substrate EWLYFQS” value?
**A.** 0.0351

**Q.** With MGESLFKGPRDYNPISSSICHLTNESDGHTTSLYGIGFGPFIITNKHLFRRNNGTLVVQSLHGVFKVKDTTTLQQHLVDGRDMIIIRMPKDFPPFPQKLKEREPQREERICLVTTNFQTKSMSSMVSDTSCTFPSGDGIFWKHWIQTKDGQCGSPLVSTRDGFIVGIHSASNFTNTNNYFTSVPKNFMELLTNQEAQQWVSGWRLNADSVLWGGHKVFMVKPEEPFQPVKEATQL [F101E] as the variant, how does the “area with substrate ECLYFQS” value read?
**A.** 0.0479

**Q.** And the “area with substrate EDLYFQS” value?
**A.** 0.0622

**Q.** And the “area with substrate ELLYFQS” value?
**A.** 0.0557

**Q.** And the “area with substrate EMLYFQS” value?
**A.** 0.0391

**Q.** And the “area with substrate EPLYFQS” value?
**A.** 0.0462

**Q.** And the “area with substrate ERLYFQS” value?
**A.** 0.0475

**Q.** And the “area with substrate ESLYFQS” value?
**A.** 0.0502

**Q.** What about the “area with substrate ETLYFQS” value of the same variant?
**A.** 0.0541

**Q.** What about the “area with substrate EWLYFQS” value of the same variant?
**A.** 0.0531

**Q.** Which results are given for MGESLFKGPRDYNPISSSICHLTNESDGHTTSLYGIGFGPFIITNKHLFRRNNGTLVVQSLHGVFKVKDTTTLQQHLVDGRDMIIIRMPKDFPPFPQKLKFREPQREERICLKTTNFQTKSMSSMVSDTSCTFPSGDGIFWKHWIQTKDGQCGSPLVSTRDGFIVGIHSASNFTNTNNYFTSVPKNFMELLTNQEAQQWVSGWRLNADSVLWGGHKVFMVKPEEPFQPVKEATQL [V113K]?
**A.** area with substrate ECLYFQS: 0.0607; area with substrate EKLYFQS: 0.0809; area with substrate EMLYFQS: 0.0824; area with substrate EPLYFQS: 0.0752; area with substrate ESLYFQS: 0.0572; area with substrate ETLYFQS: 0.0687; area with substrate EVLYFQS: 0.0676; area with substrate EYLYFQS: 0.0672

**Q.** For MGESLFKGPRDYNPISSSICHLTNESDGHTTSLYGIGFGPFIITNKHLFRRNNGTLVVQSLHGVFKVKDTTTLQQHLVDGRDMIIIRMPKDFPPFPQKLKFREPQREERICLWTTNFQTKSMSSMVSDTSCTFPSGDGIFWKHWIQTKDGQCGSPLVSTRDGFIVGIHSASNFTNTNNYFTSVPKNFMELLTNQEAQQWVSGWRLNADSVLWGGHKVFMVKPEEPFQPVKEATQL [V113W], which “area with substrate ECLYFQS” value is on record?
**A.** 0.0743

**Q.** And the “area with substrate EDLYFQS” value?
**A.** 0.117

**Q.** And the “area with substrate EFLYFQS” value?
**A.** 0.118

**Q.** What about the “area with substrate EILYFQS” value of the same variant?
**A.** 0.0479

**Q.** And the “area with substrate EKLYFQS” value?
**A.** 0.112

**Q.** And the “area with substrate EMLYFQS” value?
**A.** 0.0948

**Q.** What about the “area with substrate ERLYFQS” value of the same variant?
**A.** 0.0729

**Q.** And the “area with substrate ETLYFQS” value?
**A.** 0.0873

**Q.** What about the “area with substrate EVLYFQS” value of the same variant?
**A.** 0.0772

**Q.** And the “area with substrate EWLYFQS” value?
**A.** 0.0808

**Q.** What about the “area with substrate EYLYFQS” value of the same variant?
**A.** 0.0919

**Q.** Which results are given for MGESLFKGPRDYNPISSSICHLTNESDGHTTSLYGIGFGPFIITNKHLFRRNNGTLVVQSLHGVFKVKDTTTLQQHLVDGRDMIIIRMPKDFPPFPQKLQFREPQREERICLVTTNFQTKSMSSMVSDTSCTFPSGDGIFWKHWIQTKDGQCGSPLVSTRDGFIVGIHSASNFTNTNNYFTSVPKNFMELLTNQEAQQWVSGWRLNADSVLWGGHKVFMVKPEEPFQPVKEATQL [K100Q]?
**A.** area with substrate ECLYFQS: 0.102; area with substrate EDLYFQS: 0.135; area with substrate EILYFQS: 0.0847; area with substrate EKLYFQS: 0.104; area with substrate ELLYFQS: 0.0755; area with substrate EPLYFQS: 0.123; area with substrate ERLYFQS: 0.106; area with substrate ESLYFQS: 0.111; area with substrate EVLYFQS: 0.0869

**Q.** Which “area with substrate ECLYFQS” value does the source give for MGESLFKGPRDYNPISSSICHLTNESDGHTTSLYGIGFGPFIITNKHLFRRNNGTLVVQSLHGVFKVKDTTTLQQHLVDGRDMIIIRMPKDFPPFPQKLDFREPQREERICLVTTNFQTKSMSSMVSDTSCTFPSGDGIFWKHWIQTKDGQCGSPLVSTRDGFIVGIHSASNFTNTNNYFTSVPKNFMELLTNQEAQQWVSGWRLNADSVLWGGHKVFMVKPEEPFQPVKEATQL [K100D] here?
**A.** 0.1

**Q.** And the “area with substrate EFLYFQS” value?
**A.** 0.126

**Q.** And the “area with substrate EHLYFQS” value?
**A.** 0.114

**Q.** And the “area with substrate EILYFQS” value?
**A.** 0.0821

**Q.** And the “area with substrate EKLYFQS” value?
**A.** 0.101

**Q.** What about the “area with substrate EMLYFQS” value of the same variant?
**A.** 0.103

**Q.** And the “area with substrate EPLYFQS” value?
**A.** 0.111

**Q.** What about the “area with substrate EQLYFQS” value of the same variant?
**A.** 0.12

**Q.** What about the “area with substrate ERLYFQS” value of the same variant?
**A.** 0.0401

**Q.** What about the “area with substrate ETLYFQS” value of the same variant?
**A.** 0.109

**Q.** And the “area with substrate EVLYFQS” value?
**A.** 0.0635

**Q.** And the “area with substrate EWLYFQS” value?
**A.** 0.0841

**Q.** What about the “area with substrate EYLYFQS” value of the same variant?
**A.** 0.103

**Q.** Which results are given for MGESLFKGPRDYNPISSSICHLTNESDGHTTSLYGIGFGPFIITNKHLFRRNNGTLVVQSLHGVFKVKDTTTLQQHLVDGRDMIIIRMPKDFPPFPQKLKFREPQREERRCLVTTNFQTKSMSSMVSDTSCTFPSGDGIFWKHWIQTKDGQCGSPLVSTRDGFIVGIHSASNFTNTNNYFTSVPKNFMELLTNQEAQQWVSGWRLNADSVLWGGHKVFMVKPEEPFQPVKEATQL [I110R]?
**A.** area with substrate ECLYFQS: 0.0467; area with substrate EDLYFQS: 0.0618; area with substrate EELYFQS: 0.0625; area with substrate EGLYFQS: 0.058; area with substrate EILYFQS: 0.0411; area with substrate EKLYFQS: 0.0494; area with substrate ELLYFQS: 0.0632; area with substrate EQLYFQS: 0.0417; area with substrate ERLYFQS: 0.0548; area with substrate ESLYFQS: 0.0542; area with substrate EVLYFQS: 0.0392

**Q.** What does the source list for MGESLFKGPRDYNPISSSICHLTNESDGHTTSLYGIGFGPFIITNKHLFRRNNGTLVVQSLHGVFKVKDTTTLQQHLVDGRDMIIIRMPKDFPPFPQKLKFREPQREERFCLVTTNFQTKSMSSMVSDTSCTFPSGDGIFWKHWIQTKDGQCGSPLVSTRDGFIVGIHSASNFTNTNNYFTSVPKNFMELLTNQEAQQWVSGWRLNADSVLWGGHKVFMVKPEEPFQPVKEATQL [I110F]?
**A.** area with substrate ECLYFQS: 0.0619; area with substrate EDLYFQS: 0.0535; area with substrate EELYFQS: 0.0347; area with substrate EFLYFQS: 0.0677; area with substrate EGLYFQS: 0.0528; area with substrate EHLYFQS: 0.0541; area with substrate EILYFQS: 0.0617; area with substrate EKLYFQS: 0.0521; area with substrate EMLYFQS: 0.0452; area with substrate EPLYFQS: 0.0605; area with substrate EQLYFQS: 0.0546; area with substrate ERLYFQS: 0.0528; area with substrate ESLYFQS: 0.0572; area with substrate EWLYFQS: 0.0501
